# Measurements taken from the supplement of paper PMC4604168 (melanoma cell lines).
# The other results are listed elsewhere or left out. Many values rest on one well or one pass, so single values are uncertain.
# Tested on: MeWo
# Assay: cell count relative to DMSO control; melanoma cells; higher = more viable cells
# Conditions: library dose: low library concentration; 72 h
# 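Further: cell number obtained by counting DAPI-stained nuclei in high-throughput microscope images with image analysis software, screen run in 1,536-well plates.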
row,Structure (SMILES),cell count [%]
1,"C[C@]12O[C@H](C[C@]1(O)CO)n1c3ccccc3c3c4c(c5c6ccccc6n2c5c31)CNC4=O [Lestaurtinib] + CN1CCN(c2ccc3nc(-c4c(N)c5c(F)cccc5[nH]c4=O)[nH]c3c2)CC1 [Dovitinib] (first compound 0.004 µM, partner dose 0.1 µM)",76
2,"C[C@]12O[C@H](C[C@]1(O)CO)n1c3ccccc3c3c4c(c5c6ccccc6n2c5c31)CNC4=O [Lestaurtinib] + CCCCCCCCc1ccc(CCC(N)(CO)CO)cc1 [fingolimod] (first compound 0.004 µM, partner dose 2 µM)",88.1
3,"C[C@]12O[C@H](C[C@]1(O)CO)n1c3ccccc3c3c4c(c5c6ccccc6n2c5c31)CNC4=O [Lestaurtinib] + CNC(=O)c1cc(Oc2ccc(NC(=O)Nc3ccc(Cl)c(C(F)(F)F)c3)cc2)ccn1 [sorafenib] (first compound 0.004 µM, partner dose 0.4 µM)",79.3
4,"N.N.[Cl][Pt][Cl] [cisplatin] + CO[C@H]1C[C@@H]2CC[C@@H](C)[C@@](O)(O2)C(=O)C(=O)N2CCCC[C@H]2C(=O)O[C@H]([C@H](C)C[C@@H]2CC[C@@H](OCCO)[C@H](OC)C2)CC(=O)[C@H](C)/C=C(\C)[C@@H](O)[C@@H](OC)C(=O)[C@H](C)C[C@H](C)/C=C/C=C/C=C/1C [everolimus] (first compound 1.6 µM, partner dose 0.02 µM)",73.4
5,"C[C@]12O[C@H](C[C@]1(O)CO)n1c3ccccc3c3c4c(c5c6ccccc6n2c5c31)CNC4=O [Lestaurtinib] + C=CCNC1=C2C[C@@H](C)C[C@H](OC)[C@H](O)[C@@H](C)/C=C(\C)[C@H](OC(N)=O)[C@@H](OC)/C=C\C=C(/C)C(=O)NC(=CC1=O)C2=O [Tanespimycin] (first compound 0.004 µM, partner dose 0.002 µM)",98.8
6,"C[C@]12O[C@H](C[C@]1(O)CO)n1c3ccccc3c3c4c(c5c6ccccc6n2c5c31)CNC4=O [Lestaurtinib] + COc1ccc(Cl)c(Nc2nc3ccccc3nc2NS(=O)(=O)c2cccc(NC(=O)C(C)(C)N)c2)c1 [XL147] (first compound 0.004 µM, partner dose 0.8 µM)",91.5
7,"C[C@]12O[C@H](C[C@]1(O)CO)n1c3ccccc3c3c4c(c5c6ccccc6n2c5c31)CNC4=O [Lestaurtinib] + CCN(CC)CCNC(=O)c1c(C)[nH]c(/C=C2\C(=O)Nc3ccc(F)cc32)c1C [sunitinib] (first compound 0.004 µM, partner dose 0.4 µM)",77.8
8,"C[C@]12O[C@H](C[C@]1(O)CO)n1c3ccccc3c3c4c(c5c6ccccc6n2c5c31)CNC4=O [Lestaurtinib] + CS(=O)(=O)c1ccc(C(=O)Nc2ccc(Cl)c(-c3ccccn3)c2)c(Cl)c1 [vismodegib] (first compound 0.004 µM, partner dose 1 µM)",73.9
9,"C[As](C)SC[C@H](NC(=O)CC[C@H](N)C(=O)O)C(=O)NCC(=O)O [Darinaparsin] + Cn1cc(/C=C2\C(=O)Nc3cccnc32)c2ccccc21 [GW441756] (first compound 0.4 µM, partner dose 0.4 µM)",84.4
10,"C[C@]12O[C@H](C[C@]1(O)CO)n1c3ccccc3c3c4c(c5c6ccccc6n2c5c31)CNC4=O [Lestaurtinib] + CC(=O)c1c(C)c2cnc(Nc3ccc(N4CCNCC4)cn3)nc2n(C2CCCC2)c1=O [palbociclib] (first compound 0.004 µM, partner dose 0.04 µM)",93.9
11,"C[C@]12O[C@H](C[C@]1(O)CO)n1c3ccccc3c3c4c(c5c6ccccc6n2c5c31)CNC4=O [Lestaurtinib] + Nc1nc(F)nc2c1ncn2[C@@H]1O[C@H](CO)[C@@H](O)[C@@H]1O [fludarabine] (first compound 0.004 µM, partner dose 0.2 µM)",38.3
12,"Cn1cc(C2=C(c3cn(C4CCN(Cc5ccccn5)CC4)c4ccccc34)C(=O)NC2=O)c2ccccc21 [Enzastaurin] + C[C@]12O[C@H](C[C@]1(O)CO)n1c3ccccc3c3c4c(c5c6ccccc6n2c5c31)CNC4=O [Lestaurtinib] (first compound 0.8 µM, partner dose 0.004 µM)",94.7
13,"C[C@]12O[C@H](C[C@]1(O)CO)n1c3ccccc3c3c4c(c5c6ccccc6n2c5c31)CNC4=O [Lestaurtinib] + CS(=O)(=O)CCNCc1ccc(-c2ccc3ncnc(Nc4ccc(OCc5cccc(F)c5)c(Cl)c4)c3c2)o1 [lapatinib] (first compound 0.004 µM, partner dose 0.8 µM)",85.4
14,"C[C@]12O[C@H](C[C@]1(O)CO)n1c3ccccc3c3c4c(c5c6ccccc6n2c5c31)CNC4=O [Lestaurtinib] + Clc1ccc(Nc2nnc(Cc3ccncc3)c3ccccc23)cc1 [vatalanib] (first compound 0.004 µM, partner dose 2 µM)",67
15,"C[C@]12O[C@H](C[C@]1(O)CO)n1c3ccccc3c3c4c(c5c6ccccc6n2c5c31)CNC4=O [Lestaurtinib] + Cc1cc(Nc2cc(N3CCN(C)CC3)nc(/C=C/c3ccccc3)n2)n[nH]1 [ENMD2076] (first compound 0.004 µM, partner dose 0.04 µM)",80.1
16,"C[C@]12O[C@H](C[C@]1(O)CO)n1c3ccccc3c3c4c(c5c6ccccc6n2c5c31)CNC4=O [Lestaurtinib] + C#Cc1cccc(Nc2ncnc3cc(OCCOC)c(OCCOC)cc23)c1 [erlotinib] (first compound 0.004 µM, partner dose 0.8 µM)",82.4
17,"C[C@]12O[C@H](C[C@]1(O)CO)n1c3ccccc3c3c4c(c5c6ccccc6n2c5c31)CNC4=O [Lestaurtinib] + Nc1ncn([C@H]2C[C@H](O)[C@@H](CO)O2)c(=O)n1 [decitabine] (first compound 0.004 µM, partner dose 0.1 µM)",78.5
18,"C[C@]12O[C@H](C[C@]1(O)CO)n1c3ccccc3c3c4c(c5c6ccccc6n2c5c31)CNC4=O [Lestaurtinib] + COCC[n+]1c2c(n(Cc3cnccn3)c1C)C(=O)c1ccccc1C2=O [YM155] (first compound 0.004 µM, partner dose 0.0004 µM)",105
19,"C[As](C)SC[C@H](NC(=O)CC[C@H](N)C(=O)O)C(=O)NCC(=O)O [Darinaparsin] + COC(=O)c1sccc1S(=O)(=O)Nc1ccc(Nc2ccccc2)cc1OC [GSK0660] (first compound 0.4 µM, partner dose 1 µM)",87.5
20,"C[C@]12O[C@H](C[C@]1(O)CO)n1c3ccccc3c3c4c(c5c6ccccc6n2c5c31)CNC4=O [Lestaurtinib] + C[C@]1(c2nc3c(C(N)=O)cccc3[nH]2)CCCN1 [Veliparib] (first compound 0.004 µM, partner dose 1.4 µM)",98.8
21,"C[As](C)SC[C@H](NC(=O)CC[C@H](N)C(=O)O)C(=O)NCC(=O)O [Darinaparsin] + O=C(Oc1ccc([N+](=O)[O-])cc1)N1CCC(C(O)(c2ccc3c(c2)OCO3)c2ccc3c(c2)OCO3)CC1 [JZL184] (first compound 0.4 µM, partner dose 1 µM)",81.6
